From patent US8669255B2, “Substituted octahydropyrrolo[1,2-a]pyrazines as calcium channel blockers” (AbbVie Inc., priority 2011, dated 2014) come the findings set out here.

The target of this experiment is human Cav2.2 (Homo sapiens, UniProt Q00975). In words: In vitro assessment of calcium channel activity using FLIPR (Ca2+ influx in IMR32 cells). The experiment is classed as cell-based. Particulars: IMR32 cells endogenously expressing human Cav2.2; 60 minute pre-incubation; 2 μM nifedipine; depolarized with 80 mM KCl; average of at least two runs unless marked (*).
By IC50 is commonly meant the point on the concentration scale where inhibition reaches its midpoint. Consider `FC(F)(F)c1ccc(N2CCN3C[C@H](Oc4cnc(C5CC5)cn4)C[C@H]3C2)nc1` [Example 90, (7R,8aS)-7-[(5-cyclopropylpyrazin-2-yl)oxy]-2-[5-(trifluoromethyl)pyridin-2-yl]octahydropyrrolo[1,2-a]pyrazine], for which the IC50 was found to be 1960 nM.
For the compound `FC(F)(F)c1cccc(CN2CCN3C[C@H](Oc4ccc(Cl)cn4)C[C@H]3C2)c1` [Example 91, (7R,8aS)-7-[(5-chloropyridin-2-yl)oxy]-2-[3-(trifluoromethyl)benzyl]-octahydropyrrolo[1,2-a]pyrazine], the IC50 worked out at 2130 nM.
Take `Clc1ccc(O[C@H]2C[C@@H]3CN(Cc4ccccc4)CCN3C2)nc1` [Example 92, (7S,8aR)-2-benzyl-7-[(5-chloropyridin-2-yl)oxy]octahydropyrrolo[1,2-a]-pyrazine]: the IC50 was found to be 1870 nM.
For the compound `FC(F)(F)c1cccc(N2CCN3C[C@@H](Oc4ccc(Cl)cn4)C[C@H]3C2)n1` [Example 93, (7S,8aS)-7-[(5-chloropyridin-2-yl)oxy]-2-[6-(trifluoromethyl)pyridin-2-yl]-octahydropyrrolo[1,2-a]pyrazine], the IC50 turned out to be 4360 nM.
The result for `O=C(NC(c1ccccc1)c1ccccc1)[C@H]1C[C@H]2CN(C(c3ccccc3)c3ccccc3)CCN2C1` [Example 105, (7S,8aS)-N,2-bis(diphenylmethyl)octahydropyrrolo[1,2-a]pyrazine-7-carboxamide] reads 2700 nM; that for `O=C(c1cc(C(F)(F)F)ccn1)N1CCN2C[C@H](Oc3cnc(C4CC4)cn3)C[C@H]2C1` [Example 106, [(7R,8aS)-7-[(5-cyclopropylpyrazin-2-yl)oxy]hexahydropyrrolo[1,2-a]-pyrazin-2(1H)-yl][4-(trifluoromethyl)pyridin-2-yl]methanone], 15600 nM; that for `O=C(c1cccc(C(F)(F)F)n1)N1CCN2C[C@H](Oc3cnc(C4CC4)cn3)C[C@H]2C1` [Example 107, [(7R,8aS)-7-[(5-cyclopropylpyrazin-2-yl)oxy]hexahydropyrrolo[1,2-a]-pyrazin-2(1H)-yl][6-(trifluoromethyl)pyridin-2-yl]methanone], 13700 nM.
On to `COc1cccc(C(=O)N2CCN3C[C@H](Oc4cnc(C5CC5)cn4)C[C@H]3C2)n1` [Example 108, [(7R,8aS)-7-[(5-cyclopropylpyrazin-2-yl)oxy]hexahydropyrrolo[1,2-a]-pyrazin-2(1H)-yl](6-methoxypyridin-2-yl)methanone], for which the IC50 is 8580 nM.
Regarding `O=C(c1ccc(C(F)(F)F)cn1)N1CCN2C[C@H](Oc3cnc(C4CC4)cn3)C[C@H]2C1` [Example 109, [(7R,8aS)-7-[(5-cyclopropylpyrazin-2-yl)oxy]hexahydropyrrolo[1,2-a]-pyrazin-2(1H)-yl][5-(trifluoromethyl)pyridin-2-yl]methanone], the IC50 is 6480 nM.
As for `O=C(c1cccc(N2CCCC2)n1)N1CCN2C[C@H](Oc3cnc(C4CC4)cn3)C[C@H]2C1` [Example 110, [(7R,8aS)-7-[(5-cyclopropylpyrazin-2-yl)oxy]hexahydropyrrolo[1,2-a]-pyrazin-2(1H)-yl][6-(pyrrolidin-1-yl)pyridin-2-yl]methanone], the IC50 was found to be 7230 nM.
On to `O=C(c1cccc(N2CCCC2)c1)N1CCN2C[C@H](Oc3cnc(C4CC4)cn3)C[C@H]2C1` [Example 111, [(7R,8aS)-7-[(5-cyclopropylpyrazin-2-yl)oxy]hexahydropyrrolo[1,2-a]-pyrazin-2(1H)-yl][3-(pyrrolidin-1-yl)phenyl]methanone], for which the IC50 came out at 4300 nM.
As to `CC(C)(C)c1ccnc(C(=O)N2CCN3C[C@H](Oc4cnc(C5CC5)cn4)C[C@H]3C2)c1` [Example 112, (4-tert-butylpyridin-2-yl)[(7R,8aS)-7-[(5-cyclopropylpyrazin-2-yl)oxy]-hexahydropyrrolo[1,2-a]pyrazin-2(1H)-yl]methanone], the IC50 was 5410 nM.
In the case of `O=C(Oc1cccc(C(F)(F)F)c1)N1CCN2C[C@H](Oc3cnc(C4CC4)cn3)C[C@H]2C1` [Example 113, 3-(trifluoromethyl)phenyl (7R,8aS)-7-[(5-cyclopropylpyrazin-2-yl)oxy]-hexahydropyrrolo[1,2-a]pyrazine-2(1H)-carboxylate], the IC50 came to 1620 nM.
For the compound `O=C(Oc1cccc(OC(F)(F)F)c1)N1CCN2C[C@H](Oc3cnc(C4CC4)cn3)C[C@H]2C1` [Example 114, 3-(trifluoromethoxy)phenyl (7R,8aS)-7-[(5-cyclopropylpyrazin-2-yl)oxy]-hexahydropyrrolo[1,2-a]pyrazine-2(1H)-carboxylate], the IC50 came to 2120 nM.
With `O=C(Oc1ccc(C(F)(F)F)cc1)N1CCN2C[C@H](Oc3cnc(C4CC4)cn3)C[C@H]2C1` [Example 115, 4-(trifluoromethyl)phenyl (7R,8aS)-7-[(5-cyclopropylpyrazin-2-yl)oxy]-hexahydropyrrolo[1,2-a]pyrazine-2(1H)-carboxylate], the IC50 was found to be 2260 nM.
In the case of `O=C(Oc1ccc(F)c(C(F)(F)F)c1)N1CCN2C[C@H](Oc3cnc(C4CC4)cn3)C[C@H]2C1` [Example 116, 4-fluoro-3-(trifluoromethyl)phenyl (7R,8aS)-7-[(5-cyclopropylpyrazin-2-yl)-oxy]hexahydropyrrolo[1,2-a]pyrazine-2(1H)-carboxylate], the IC50 came to 920 nM.
With `O=C(Oc1ccc(Cl)c(C(F)(F)F)c1)N1CCN2C[C@H](Oc3cnc(C4CC4)cn3)C[C@H]2C1` [Example 117, 4-chloro-3-(trifluoromethyl)phenyl (7R,8aS)-7-[(5-cyclopropylpyrazin-2-yl)oxy]hexahydropyrrolo[1,2-a]pyrazine-2(1H)-carboxylate], the IC50 is 1720 nM.
To `O=C(Oc1cc(Cl)cc(C(F)(F)F)c1)N1CCN2C[C@H](Oc3cnc(C4CC4)cn3)C[C@H]2C1` [Example 118, 3-chloro-5-(trifluoromethyl)phenyl (7R,8aS)-7-[(5-cyclopropylpyrazin-2-yl)oxy]hexahydropyrrolo[1,2-a]pyrazine-2(1H)-carboxylate] belongs 3290 nM; to `CC(C)c1cccc(OC(=O)N2CCN3C[C@H](Oc4cnc(C5CC5)cn4)C[C@H]3C2)c1` [Example 119, 3-isopropylphenyl (7R,8aS)-7-[(5-cyclopropylpyrazin-2-yl)oxy]hexahydro-pyrrolo[1,2-a]pyrazine-2(1H)-carboxylate], 2110 nM; to `CC(C)(C)c1cccc(OC(=O)N2CCN3C[C@H](Oc4cnc(C5CC5)cn4)C[C@H]3C2)c1` [Example 120, 3-tert-butylphenyl (7R,8aS)-7-[(5-cyclopropylpyrazin-2-yl)oxy]hexahydro-pyrrolo[1,2-a]pyrazine-2(1H)-carboxylate], 1100 nM.
For the compound `O=C(c1cccc(C2CC2)c1)N1CCN2C[C@H](Oc3cnc(C4CC4)cn3)C[C@H]2C1` [Example 121, (3-cyclopropylphenyl) [(7R,8aS)-7-[(5-cyclopropylpyrazin-2-yl)oxy]-hexahydropyrrolo[1,2-a]pyrazin-2(1H)-yl]methanone], the IC50 was determined as 1690 nM.
Consider `CC(C)c1cccc(C(=O)N2CCN3C[C@H](Oc4cnc(C5CC5)cn4)C[C@H]3C2)c1` [Example 122, [(7R,8aS)-7-[(5-cyclopropylpyrazin-2-yl)oxy]hexahydropyrrolo[1,2-a]-pyrazin-2(1H)-yl](3-isopropylphenyl)methanone], for which the IC50 is 970 nM.
Regarding `O=C(c1cc(OC(F)(F)F)ccc1F)N1CCN2C[C@H](Oc3cnc(C4CC4)cn3)C[C@H]2C1` [Example 123, [(7R,8aS)-7-[(5-cyclopropylpyrazin-2-yl)oxy]hexahydropyrrolo[1,2-a]-pyrazin-2(1H)-yl][2-fluoro-5-(trifluoromethoxy)phenyl]methanone], the IC50 was 1090 nM.
Consider `O=C(c1cccc(OC(F)F)c1)N1CCN2C[C@H](Oc3cnc(C4CC4)cn3)C[C@H]2C1` [Example 124, [(7R,8aS)-7-[(5-cyclopropylpyrazin-2-yl)oxy]hexahydropyrrolo[1,2-a]-pyrazin-2(1H)-yl][3-(difluoromethoxy)phenyl]methanone], for which the IC50 was 1940 nM.
Take `O=C(Cc1ccc(F)c(C(F)(F)F)c1)N1CCN2C[C@H](Oc3cnc(C4CC4)cn3)C[C@H]2C1` [Example 125, 1-[(7R,8aS)-7-[(5-cyclopropylpyrazin-2-yl)oxy]hexahydropyrrolo[1,2-a]-pyrazin-2(1H)-yl]-2-[4-fluoro-3-(trifluoromethyl)phenyl]ethanone]: the IC50 worked out at 770 nM.
For `O=C(c1ccc2c(c1)OC(F)(F)O2)N1CCN2C[C@H](Oc3cnc(C4CC4)cn3)C[C@H]2C1` [Example 126, [(7R,8aS)-7-[(5-cyclopropylpyrazin-2-yl)oxy]hexahydropyrrolo[1,2-a]-pyrazin-2(1H)-yl](2,2-difluoro-1,3-benzodioxol-5-yl)methanone], the IC50 turned out to be 1650 nM.
`Cc1ccc(C)n1-c1cccc(C(=O)N2CCN3C[C@H](Oc4cnc(C5CC5)cn4)C[C@H]3C2)c1` [Example 127, [(7R,8aS)-7-[(5-cyclopropylpyrazin-2-yl)oxy]hexahydropyrrolo[1,2-a]-pyrazin-2(1H)-yl][3-(2,5-dimethyl-1H-pyrrol-1-yl)phenyl]methanone]: the IC50 was 1480 nM.
The result for `CC(C)(O)c1cccc(C(=O)N2CCN3C[C@H](Oc4cnc(C5CC5)cn4)C[C@H]3C2)c1` [Example 128, [(7R,8aS)-7-[(5-cyclopropylpyrazin-2-yl)oxy]hexahydropyrrolo[1,2-a]-pyrazin-2(1H)-yl][3-(2-hydroxypropan-2-yl)phenyl]methanone] reads 7780 nM.
For `O=C(c1cccc(N2CCCCC2)c1)N1CCN2C[C@H](Oc3cnc(C4CC4)cn3)C[C@H]2C1` [Example 129, [(7R,8aS)-7-[(5-cyclopropylpyrazin-2-yl)oxy]hexahydropyrrolo[1,2-a]-pyrazin-2(1H)-yl][3-(piperidin-1-yl)phenyl]methanone], the IC50 turned out to be 6510 nM.
The result for `O=C(Sc1ccc(C(F)(F)F)cn1)N1CCN2C[C@H](Oc3cnc(C4CC4)cn3)C[C@H]2C1` [Example 130] reads 1000 nM; that for `O=C(Cc1ccc(Cl)c(C(F)(F)F)c1)N1CCN2C[C@H](Oc3cnc(C4CC4)cn3)C[C@H]2C1` [Example 131, 2-[4-chloro-3-(trifluoromethyl)phenyl]-1-[(7R,8aS)-7-[(5-cyclopropyl-pyrazin-2-yl)oxy]hexahydropyrrolo[1,2-a]pyrazin-2(1H)-yl]ethanone], 540 nM.
